Measurements published in article PMC12624062.
No constants are given. Whether binding was seen depends on the method and setting. Binding seen in cells or lysates may run through a third protein. Some results given as binding are weak or reduced against the parent protein; the word gives no strength.

T1: ASZ1 (mouse) (UniProt Q8VD46)
T1 sequence: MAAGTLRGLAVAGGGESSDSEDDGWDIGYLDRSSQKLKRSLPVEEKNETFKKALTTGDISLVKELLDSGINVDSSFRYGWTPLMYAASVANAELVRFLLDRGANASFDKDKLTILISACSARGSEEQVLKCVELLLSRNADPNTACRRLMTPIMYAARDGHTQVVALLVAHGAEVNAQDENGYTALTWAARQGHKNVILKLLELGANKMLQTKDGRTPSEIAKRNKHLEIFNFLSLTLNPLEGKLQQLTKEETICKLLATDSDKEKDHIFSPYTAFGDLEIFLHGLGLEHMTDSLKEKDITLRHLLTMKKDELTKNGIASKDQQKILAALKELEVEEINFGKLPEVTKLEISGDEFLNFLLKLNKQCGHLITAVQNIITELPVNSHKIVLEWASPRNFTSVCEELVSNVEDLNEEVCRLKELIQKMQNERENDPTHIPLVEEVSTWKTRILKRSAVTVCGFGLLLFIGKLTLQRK

T2: TDRD1 (mouse) (UniProt Q99MV1)
T2 sequence: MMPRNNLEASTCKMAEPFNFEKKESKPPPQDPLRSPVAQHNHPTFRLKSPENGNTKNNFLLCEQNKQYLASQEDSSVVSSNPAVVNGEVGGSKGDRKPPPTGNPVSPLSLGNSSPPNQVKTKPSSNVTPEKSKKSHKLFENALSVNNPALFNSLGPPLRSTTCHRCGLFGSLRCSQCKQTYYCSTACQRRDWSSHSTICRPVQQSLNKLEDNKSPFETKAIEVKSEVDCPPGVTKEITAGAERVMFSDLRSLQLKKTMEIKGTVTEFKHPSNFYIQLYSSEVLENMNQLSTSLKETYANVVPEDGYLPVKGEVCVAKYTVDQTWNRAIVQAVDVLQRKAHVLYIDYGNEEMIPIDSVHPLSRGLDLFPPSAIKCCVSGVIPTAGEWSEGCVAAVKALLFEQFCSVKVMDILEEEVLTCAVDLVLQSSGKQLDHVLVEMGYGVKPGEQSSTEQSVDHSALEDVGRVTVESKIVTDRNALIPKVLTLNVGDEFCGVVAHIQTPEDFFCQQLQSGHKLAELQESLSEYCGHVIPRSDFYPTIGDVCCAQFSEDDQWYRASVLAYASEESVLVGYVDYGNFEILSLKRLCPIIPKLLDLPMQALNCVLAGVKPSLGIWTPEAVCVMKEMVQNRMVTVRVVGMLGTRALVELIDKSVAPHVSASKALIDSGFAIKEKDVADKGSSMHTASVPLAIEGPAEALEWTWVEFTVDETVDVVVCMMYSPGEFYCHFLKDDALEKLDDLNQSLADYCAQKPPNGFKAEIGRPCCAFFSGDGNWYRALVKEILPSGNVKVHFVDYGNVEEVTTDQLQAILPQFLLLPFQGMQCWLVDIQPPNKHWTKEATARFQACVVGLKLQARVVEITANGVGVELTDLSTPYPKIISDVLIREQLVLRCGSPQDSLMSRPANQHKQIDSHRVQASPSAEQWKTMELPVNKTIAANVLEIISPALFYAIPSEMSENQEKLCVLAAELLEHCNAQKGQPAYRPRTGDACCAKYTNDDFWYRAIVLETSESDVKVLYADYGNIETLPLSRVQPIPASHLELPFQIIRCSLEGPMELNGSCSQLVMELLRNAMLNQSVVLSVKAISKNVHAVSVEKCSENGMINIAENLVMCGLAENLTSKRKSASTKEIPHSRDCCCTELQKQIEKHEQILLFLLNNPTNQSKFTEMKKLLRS


What was measured:
[1] = biological target: PIWIL2 (endogenous, mouse testis) (mouse (endogenous in testis)) (UniProt Q8CDG1); experiment: co-IP; adult mouse testis lysates with or without RNase A (250 μg/mL, then 125 μg/mL more); lysis buffer A (150 mM KCl, 25 mM Tris-HCl pH 7.4, 0.5% NP-40, 5 mM EDTA, 0.5 mM DTT); IP with PIWIL2, ASZ1 or TDRD1 antibody; Western blot
[2] = biological target: PIWIL2 (endogenous, mouse testis) (mouse (endogenous in testis)) (UniProt Q8CDG1); experiment: co-IP; PIWIL1 and PIWIL2 IP in control (WT) and Tdrd1^c-3GS adult testes; PIWIL2, PIWIL1 and TDRD1 detected by Western blot
[3] = biological target: PIWIL1 (endogenous, mouse testis) (mouse (endogenous in testis)) (UniProt Q9JMB7); experiment: as above
[4] = biological target: T1, ASZ1 (mouse); experiment: co-IP; 293T cells transiently transfected with tagged mouse proteins; lysis in 150 mM NaCl, 50 mM Tris-HCl pH 7.4, 1% Triton X-100, 1 mM EDTA; Protein A/G agarose beads and antibodies overnight at 4 °C; washes with 300 mM NaCl; Western blot for Flag, HA, GFP; some panels with the methyltransferase inhibitor MTA
[5] = biological target: T2, TDRD1 (mouse); experiment: as above

binding [1] | binding [4] | Binder | further results
binds |  | TDRD1 (endogenous, mouse testis) (protein, UniProt Q99MV1 1-1172) MMPRNNLEASTCKMAEPFNFEKKESKPPPQDPLRSPVAQHNHPTFRLKSPENGNTKNNFLLCEQNKQYLASQEDSSVVSSNPAVVNGEVGGSKGDRKPPPTGNPVSPLSLGNSSPPNQVKTKPSSNVTPEKSKKSHKLFENALSVNNPALFNSLGPPLRSTTCHRCGLFGSLRCSQCKQTYYCSTACQRRDWSSHSTICRPVQQSLNKLEDNKSPFETKAIEVKSEVDCPPGVTKEITAGAERVMFSDLRSLQLKKTMEIKGTVTEFKHPSNFYIQLYSSEVLENMNQLSTSLKETYANVVPEDGYLPVKGEVCVAKYTVDQTWNRAIVQAVDVLQRKAHVLYIDYGNEEMIPIDSVHPLSRGLDLFPPSAIKCCVSGVIPTAGEWSEGCVAAVKALLFEQFCSVKVMDILEEEVLTCAVDLVLQSSGKQLDHVLVEMGYGVKPGEQSSTEQSVDHSALEDVGRVTVESKIVTDRNALIPKVLTLNVGDEFCGVVAHIQTPEDFFCQQLQSGHKLAELQESLSEYCGHVIPRSDFYPTIGDVCCAQFSEDDQWYRASVLAYASEESVLVGYVDYGNFEILSLKRLCPIIPKLLDLPMQALNCVLAGVKPSLGIWTPEAVCVMKEMVQNRMVTVRVVGMLGTRALVELIDKSVAPHVSASKALIDSGFAIKEKDVADKGSSMHTASVPLAIEGPAEALEWTWVEFTVDETVDVVVCMMYSPGEFYCHFLKDDALEKLDDLNQSLADYCAQKPPNGFKAEIGRPCCAFFSGDGNWYRALVKEILPSGNVKVHFVDYGNVEEVTTDQLQAILPQFLLLPFQGMQCWLVDIQPPNKHWTKEATARFQACVVGLKLQARVVEITANGVGVELTDLSTPYPKIISDVLIREQLVLRCGSPQDSLMSRPANQHKQIDSHRVQASPSAEQWKTMELPVNKTIAANVLEIISPALFYAIPSEMSENQEKLCVLAAELLEHCNAQKGQPAYRPRTGDACCAKYTNDDFWYRAIVLETSESDVKVLYADYGNIETLPLSRVQPIPASHLELPFQIIRCSLEGPMELNGSCSQLVMELLRNAMLNQSVVLSVKAISKNVHAVSVEKCSENGMINIAENLVMCGLAENLTSKRKSASTKEIPHSRDCCCTELQKQIEKHEQILLFLLNNPTNQSKFTEMKKLLRS | binding [2]: binds; binding [3]: binds
 | binds | PIWIL2 middle region (201–600 aa) (domain or fragment, UniProt Q8CDG1 201-600) VLTMERKEKELLVKQGSKGTPQSLGLNLIKIQCHNEAVYQYHVTFSPSVECKSMRFGMLKDHQSVTGNVTAFDGSILYLPVKLQQVVELKSQRKTDDAEISIKIQLTKILEPCSDLCIPFYNVVFRRVMKLLDMKLVGRNFYDPTSAMVLQQHRLQIWPGYAASIRRTDGGLFLLADVSHKVIRNDSVLDVMHAIYQQNKEHFQDECSKLLVGSIVITRYNNRTYRIDDVDWNKTPKDSFVMSDGKEITFLEYYSKNYGITVKEDDQPLLIHRPSERQNNHGMLLKGEILLLPELSFMTGIPEKMKKDFRAMKDLTQQINLSPKQHHGALECLLQRISQNETASNELTRWGLSLHKDVHKIEGRLLPMERINLRNTSFVTSEDLNWVKEVTRDASILTIP | 

The next lines start with the binder.

Binder | binding [1] | binding [4] | further results
ASZ1 (endogenous, mouse testis) (protein, UniProt Q8VD46 1-475) MAAGTLRGLAVAGGGESSDSEDDGWDIGYLDRSSQKLKRSLPVEEKNETFKKALTTGDISLVKELLDSGINVDSSFRYGWTPLMYAASVANAELVRFLLDRGANASFDKDKLTILISACSARGSEEQVLKCVELLLSRNADPNTACRRLMTPIMYAARDGHTQVVALLVAHGAEVNAQDENGYTALTWAARQGHKNVILKLLELGANKMLQTKDGRTPSEIAKRNKHLEIFNFLSLTLNPLEGKLQQLTKEETICKLLATDSDKEKDHIFSPYTAFGDLEIFLHGLGLEHMTDSLKEKDITLRHLLTMKKDELTKNGIASKDQQKILAALKELEVEEINFGKLPEVTKLEISGDEFLNFLLKLNKQCGHLITAVQNIITELPVNSHKIVLEWASPRNFTSVCEELVSNVEDLNEEVCRLKELIQKMQNERENDPTHIPLVEEVSTWKTRILKRSAVTVCGFGLLLFIGKLTLQRK | binds |  | 
MOV10L1 (protein, UniProt Q99MV5 1-1187) MIDDLIYFSNDAVTSTVLLNVGQEVIAVVEENKVSNGLKAIRVEAVSDKWEDDSKNSSKGLSDSSPRVLIGCVTSMLEGAGYISQTTYFSLESVCEGFHPCKGDWVEAEYWIRPGTWSSEAISVKPLRYKRVDKVCISSLCGRNGVIEDSIFFSLDSLKLPEGYIPRRHDIVNAVVVESSQSCYIWRALCMTPVKRDATLGEAPQEPYGALLLKNKGDIEVTRMTSFGTLKEGESKSIVIWIENKGKFSRELVSCRLANWDKAHQFRFETQGRSKSCPGAAAGSVPEGENVNSLNHHREDKTDEIPESRLANSTEISPDGCACKEESREKGNTPEKQEPEPGGLIPPGEKTHIVVTCSAKNPGRCKELLLLCFSDFLIGRHLEVSVVSSEEALIAVREPFSWKKPKSSQTLVSAKTTVVVTTQKRNSRRQLPSFLPQYPIPDRLKKCVEQKIDILTFQPLLAELLNMSNYKEKFSTLLWLEEIHAEIELKEYNMSRVVLKRKGDLLVLEVPGLAESRPSLYAGDKLILKSQEYNGHVIEYIGYVMEIHEEDVTLKLNPGFEQMYNFEPMDVEFTYNRTTSRRCHYALEQVIHLGVKVLFPEEIILQSPQVTGNWSLAQDTKNDGQSITNITRNDGQSMTKVTRNDSQSITNIIRNDGQSITNVTRNDGQPITKVTRNNSQSITNITRNDGQPITKNKKTVKDQTKHTTEERHVGTTDQPEKASSTAETMDEIQIPKARDKEFFNPVLNENQKLAVRRILSGDCRPLPYILFGPPGTGKTVTIIEAVLQVHYALPDSRILVCAPSNSAADLVCLRLHESKVPKPAAMVRVNATCRFEETIIDAIKPYCRDGEDIWRASRFRIIITTCSSAGLFYQIGVRVGYFTHVFVDEAGQASEPECLIPLGLISDINGQIVLAGDPMQLGPVIKSRLAMAYGLNVSMLERLMSRPAYLRDENAFGACGAYNPLLVTKLVKNYRSHSALLALPSRLFYHRELEVCADPKVVTSLLGWEKLPRKGFPLIFHGVRGNEAREGRSPSWFSPAEAVQVMRYCCLLARSVSSQVSSKDIGVITPYRKQVEKIKILLRNVDLTDIKVGSVEEFQGQEYLVIVISTVRSNEDRFEDDRYFLGFLSNSKRFNVAITRPKALLIILGNPHVLVRDPCFGALLEYSVSNGVYTGCDLPPELQALQK |  | binds weakly | 
PIWIL1 PIWI domain (domain or fragment, UniProt Q9JMB7 556-848) IVVCLLSSNRKDKYDAIKKYLCTDCPTPSQCVVARTLGKQQTVMAIATKIALQMNCKMGGELWRVDMPLKLAMIVGIDCYHDTTAGRRSIAGFVASINEGMTRWFSRCVFQDRGQELVDGLKVCLQAALRAWSGCNEYMPSRVIVYRDGVGDGQLKTLVNYEVPQFLDCLKSVGRGYNPRLTVIVVKKRVNARFFAQSGGRLQNPLPGTVIDVEVTRPEWYDFFIVSQAVRSGSVSPTHYNVIYDSSGLKPDHIQRLTYKLCHVYYNWPGVIRVPAPCQYAHKLAFLVGQSIH |  |  | binding [5]: binds
